Measured values: publication PMC4336329 (PLoS ONE, 2015)
Out of some 310,000 compounds screened, about 2,200 (0.71%) showed an effect of 50% or more. Effects have a minus sign here. This is one part of the list.

Target: human ether-à-go-go-related gene (hERG) potassium channel (human, UniProt Q12809)
Assay: primary screen, population patch clamp on CHO cells stably expressing hERG

human ether-à-go-go-related gene (hERG) potassium channel, sequence (Q12809 whole entry, looked up): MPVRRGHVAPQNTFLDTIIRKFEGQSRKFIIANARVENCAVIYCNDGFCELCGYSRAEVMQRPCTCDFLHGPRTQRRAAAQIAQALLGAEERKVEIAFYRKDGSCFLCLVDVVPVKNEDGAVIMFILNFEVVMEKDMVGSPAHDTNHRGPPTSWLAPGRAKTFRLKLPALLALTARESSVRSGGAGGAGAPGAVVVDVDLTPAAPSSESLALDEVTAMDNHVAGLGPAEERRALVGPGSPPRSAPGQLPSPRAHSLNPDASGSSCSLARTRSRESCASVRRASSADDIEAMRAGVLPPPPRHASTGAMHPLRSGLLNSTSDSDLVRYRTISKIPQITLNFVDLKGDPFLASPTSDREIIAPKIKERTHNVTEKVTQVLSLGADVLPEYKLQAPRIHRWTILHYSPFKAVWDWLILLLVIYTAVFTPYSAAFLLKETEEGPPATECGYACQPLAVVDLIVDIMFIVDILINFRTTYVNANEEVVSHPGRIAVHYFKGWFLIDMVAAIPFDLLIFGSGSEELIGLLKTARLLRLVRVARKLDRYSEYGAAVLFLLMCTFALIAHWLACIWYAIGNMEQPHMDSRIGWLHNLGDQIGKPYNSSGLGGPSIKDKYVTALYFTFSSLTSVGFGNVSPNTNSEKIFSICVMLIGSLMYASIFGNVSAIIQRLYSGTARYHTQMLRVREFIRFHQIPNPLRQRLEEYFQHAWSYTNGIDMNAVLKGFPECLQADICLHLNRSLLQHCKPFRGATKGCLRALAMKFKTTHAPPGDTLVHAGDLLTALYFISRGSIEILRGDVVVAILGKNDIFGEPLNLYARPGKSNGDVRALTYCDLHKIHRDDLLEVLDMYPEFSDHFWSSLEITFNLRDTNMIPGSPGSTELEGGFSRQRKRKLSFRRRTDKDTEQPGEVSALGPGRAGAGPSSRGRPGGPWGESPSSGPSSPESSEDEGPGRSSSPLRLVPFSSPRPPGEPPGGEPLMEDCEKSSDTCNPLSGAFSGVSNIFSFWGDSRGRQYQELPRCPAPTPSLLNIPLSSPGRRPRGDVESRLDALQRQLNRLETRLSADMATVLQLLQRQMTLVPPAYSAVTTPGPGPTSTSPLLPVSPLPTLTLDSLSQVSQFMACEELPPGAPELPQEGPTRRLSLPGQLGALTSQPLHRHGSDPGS

Structure (SMILES) | hERG current change (%, negative = inhibition) at 1uM
CS(=O)(=O)N(CC(=O)NC1CC1)c1cccc(F)c1 | 15.7%
CC(=O)N1CCCC(C(=O)c2ccc3c4c(cccc24)CC3)C1 (centres unmarked) | 8.66%
Cc1ccc(OCC(=O)Nc2ccccc2N2CCOCC2)c(C)c1 | 8.96%
Cc1ccc(S(=O)(=O)N2c3ccccc3OCC2c2ccccc2)cc1 (centres unmarked) | 15.7%
CCOC(=O)C1CCN(S(=O)(=O)c2ccc(NC(C)=O)c(Cl)c2)CC1 | 6.61%
COc1cc2c(C(=O)NCc3ccccn3)cn(C)c(=O)c2cc1OC | 16.2%
CC(C)(C)NS(=O)(=O)c1ccc(OCC(=O)NCC2CCCO2)cc1 (centres unmarked) | 2.34%
CCOC(=O)c1cc2occc2n1CCCN1C(=O)c2ccccc2C1=O | 2.89%
CC(Oc1ccc(Cl)cc1Cl)C(=O)Nc1ccc(OCC(=O)O)cc1 (centres unmarked) | 23.3%
O=C(O)c1ccc(OCC(O)Cn2c3ccccc3c3ccccc32)cc1 (centres unmarked) | -5.97%
COc1ccc(NCCNc2ccc(OC)cc2)cc1 | -2.1%
NC(=O)c1ccc(NC(=O)Cc2cccs2)cc1 | 11.2%
COC(=O)C(C)Sc1ccc2nnc(-c3cccc(F)c3)n2n1 (centres unmarked) | -6.02%
CN(C(=O)c1cccc(C(=O)N(C)c2ccccc2)c1)c1ccccc1 | 9.07%
COCCNC(=O)C(C)N1c2cccc3cccc(c23)S1(=O)=O (centres unmarked) | 19.1%
O=C(Cc1c(O)c2ccccc2[nH]c1=O)NCc1ccc(F)cc1 | 14.6%
O=C1CC(NCc2ccc(F)cc2)C(=O)N1c1ccccc1 (centres unmarked) | 10.7%
COc1cccc(-n2ccnc2SCC(=O)Nc2cc(C)on2)c1 | 12.2%
CN1CCN(C(=O)CCc2nnc3ccc(N4CCC5(CC4)OCCO5)nn23)CC1 | 16.9%
O=C(CN1CCCc2ccccc21)N/N=C/c1ccc(O)cc1O | 8.42%
CC(C)C(=O)Nc1nnc(SCc2cccc(F)c2)s1 | 10.8%
Cl.N=C(c1cccc([N+](=O)[O-])c1)N1CCCCC1 | 6.2%
CSCCC(NC(=O)COc1ccccc1)C(=O)N1CCOCC1 (centres unmarked) | 1.84%

Structure (SMILES) | hERG current change (%, negative = inhibition) at 1uM
Cc1ccc(-c2nc(S(=O)(=O)c3ccc(F)cc3)c(SCC(=O)NCC3CCCO3)o2)cc1 (centres unmarked) | 14.5%
CCOC(=O)N1CCN(C(=O)c2ccc(Cn3c(=S)[nH]c4ccc(Br)cc4c3=O)cc2)CC1 | 15%
NC(=O)CSc1nc(C2CC2)nc2sc3c(c12)CCCC3 | 12.5%
C=CCOc1nc2sc(C)c(C)c2c(=O)n1-c1ccccc1 | 9.76%
c1ccc(-c2nnc(-c3ccccn3)c(-c3ccccn3)n2)nc1 | 12.3%
Cc1cc(C)cc(NCCC#N)c1 | 8.65%
CCOC(=O)c1sc(N(Cc2ccccc2)C(=O)COC(=O)c2cnccn2)nc1C | 8.94%
Cc1cc(/C=N/NC(=O)c2ccccn2)c(C)n1-c1cccc([N+](=O)[O-])c1 | 18.4%
Cc1ccccc1CSCC(=O)NC1CCCC1 | 11.1%
COCCOc1cc2ncnc(N3CCC(C(=O)O)CC3)c2cc1OCCOC | 5.49%
COc1cc(Nc2ccccn2)cc(C(=O)Nc2cccc(C(F)(F)F)c2)c1 | 9.8%
O=[N+]([O-])c1cccc(CNC2CCCCCC2)c1 | 1.2%
COc1cccc(/C=C/C(=O)OCC(=O)c2cc(C)n(CC3CCCO3)c2C)c1OC (centres unmarked) | 5.3%
CCNC(=S)N1CCN(c2ccccn2)CC1 | 10.3%
Cn1c2ccccc2c2n[nH]c(=S)nc21 | 12.9%
Cc1ccccc1CN1CCC(C(=O)Nc2ccc(Oc3cccnc3)cc2)CC1 | 9.81%
COC(C(=O)N/N=C(\C)c1ccc(C)cc1)c1ccccc1 (centres unmarked) | 8.53%
O=C(Nc1ccc2c(c1)OCO2)c1cc(-c2ccncc2)nc2ccccc12 | 2.35%
O=C(/C=C/c1ccccc1)OCC(=O)c1ccc[nH]1 | 15.7%
CC(N)C12CC3CC(CC(C3)C1)C2.Cl (centres unmarked) | 14.2%
O=C(Nc1ccccn1)[C@@H]1CCC(=O)N1C(=O)OCc1ccccc1 | 15.7%
O=C(CCn1nc(-c2ccccc2)c2ccccc2c1=O)Nc1cccnc1 | 10.2%
CN1CCC(OC(=O)COc2ccc(C(C)(C)C)cc2)CC1.Cl | -16.3%

Structure (SMILES) | hERG current change (%, negative = inhibition) at 1uM
CCOC(=O)C1(Cc2cccc(OC)c2)CCN(Cc2cnc(SC)nc2)CC1 | 2.25%
O=C(NNC1CC(=O)N(c2cccc(Cl)c2)C1=O)c1cccs1 (centres unmarked) | 6.67%
CCOC(=O)c1ccc(NC(=S)N2CCSC2c2c(F)cc(F)cc2F)cc1 (centres unmarked) | 4.7%
Cc1ccc(F)cc1NC(=O)N1CCCN(C(=O)OC(C)(C)C)CC1 | -0.333%
CCn1cc(S(=O)(=O)c2ccc(OC)cc2)c(=O)c2cc(OC)ccc21 | 13.2%
Cc1ccc(C(=O)N2CCCCC2)cc1S(=O)(=O)N1CCCC1 | 14.3%
Cc1ccc(S(=O)(=O)NC2CCC(C(=O)O)CC2)cc1 (centres unmarked) | 9.17%
COC(=O)C1CCN(C(=O)C2CCC(=O)N(CCCc3ccccc3)C2)CC1 (centres unmarked) | 14.9%
O=c1ncn(-c2ccccc2C(F)(F)F)c2ncccc12 | 9.46%
Cc1cc(NC(=O)CC(C)C)c(=O)n(Cc2cccc(F)c2)c1 | 11.9%
CCOC(OCC)c1cn(Cc2ccc3c(c2)C(=O)c2ccccc2C3=O)nn1 | 19.1%
CCOc1ccccc1NC(=O)CCNS(=O)(=O)c1cccc2nsnc12 | 9.61%
COC(=O)c1[nH]c2ccccc2c1NC(=O)CN1CCN(C(=O)c2ccco2)CC1 | -3.88%
CCOC(=O)CC(c1ccc(N)cc1)n1c(C)ccc1C (centres unmarked) | 13.2%
CCCc1nnc(SCC(=O)Nc2nccs2)o1 | 12.9%
O=C(NCc1ccccc1F)C1CCCN1C(=O)Nc1ccc(Cl)cc1 (centres unmarked) | 11.4%
COc1ccc(-c2nnc3ccc(SCC(=O)N4CCCC4)nn23)cc1 | 3.13%
COc1cc(C(=O)Nc2ccc3c(c2)ncn3C)cc(OC)c1OC | 16.6%
O=C(CNC(=S)NC(=O)c1ccccc1)c1ccccc1 | 10.1%
Cc1ccc(S(=O)(=O)NNC(=O)c2ccncc2)cc1[N+](=O)[O-] | 7.42%
O=C(CSc1nnc(C2CC2)n1Cc1ccccc1)c1ccc(S(=O)(=O)N2CCOCC2)cc1 | 2.7%
Cc1ccc(S(=O)(=O)N2CCN(S(=O)(=O)N3CCCCC3)CC2)cc1C | 9.57%
O=C(COC(=O)C1CC(=O)N(Cc2ccccc2)C1)Nc1ccc2c(c1)OCO2 (centres unmarked) | 15.9%

Structure (SMILES) | hERG current change (%, negative = inhibition) at 1uM
Cc1cc(Cl)ccc1OCC(=O)N/N=C1\CC2C=CCC12 (centres unmarked) | -1.63%
CN(C)C(=O)C1C2NC(=S)N(c3cccc(Cl)c3)C1(C)Oc1ccc(Cl)cc12 (centres unmarked) | 13.8%
CCc1nc2nc(C)c(NS(=O)(=O)c3ccc(Br)s3)c(=O)n2[nH]1 | 12.5%
O=C(NCCCn1ccnc1)c1cnn2c1NC(c1ccccc1)CC2C(F)(F)F (centres unmarked) | 8.76%
CCCOC(=O)c1c(NC(=O)CSc2nc(-c3ccco3)cc(C(F)(F)F)n2)sc(C(=O)OC)c1C | -2.09%
Cc1cc(C(=O)Nc2ccon2)c(C)o1 | 11.6%
Cc1ccc(C(=O)N2CCN(C3c4cccc5cccc(c45)C3NS(=O)(=O)c3ccccc3)CC2)cc1 (centres unmarked) | 7.87%
Cc1cccc(Cn2cccc2/C=C2/C(=N)N3C=CSC3=NC2=O)c1 | 2.88%
CC1Cc2ccccc2N1C(=O)CSc1nnc(-c2ccc(S(=O)(=O)N3CCCC3)cc2)n1C (centres unmarked) | 5.3%
CN1C(=S)SC(N(O)C(=O)Nc2ccccc2)C1(C)C (centres unmarked) | 1.87%
COc1ccc([C@@H]2CC(=O)c3c(O)cc(O[C@@H]4O[C@H](CO[C@@H]5O[C@@H](C)[C@H](O)[C@@H](O)[C@H]5O)[C@@H](O)[C@H](O)[C@H]4O)cc3O2)cc1O | 11.5%
COc1ccc(CCN(C)C2CCCN(C(=O)CCSC)C2)cc1OC (centres unmarked) | -15.5%
COc1ccc(OC)c(NC(=O)c2sc3nc(C)cc(C)c3c2N)c1 | 14.6%
CC(=O)c1cccc(NS(=O)(=O)c2ccc(C(=O)Nc3ccccc3)cc2)c1 | 11%
CCc1n[nH]c(=S)n1/N=C/c1ccc(N(CC)CC)cc1 | 12.5%
CCCCNC(=O)O[C@@H]1C[C@H]2CCCC(=O)N3CC[C@@H](C1)[C@@H]23 | 7.26%
CC(C)(C#CCCCCC#CC(C)(C)[N+](C)(C)C)[N+](C)(C)C.[I-] | 4.28%
CC1CCN(c2ccc3nnc(CCC(=O)N4CCN(c5ccccc5F)CC4)n3n2)CC1 | -7.39%
Cc1nc(N2CCCC2C(=O)O)c2oc3ccccc3c2n1 (centres unmarked) | 12.4%
Cc1ccc(CNC(=O)c2cccnc2)cc1 | 13.2%
